Experimental data as given in PubChem BioAssay AID493208 (National Center for Advancing Translational Sciences (NCATS), 2011).
Out of some 44,000 compounds screened, about 340 (0.77%) were called active. About 5% were inconclusive and are not listed. The call rests on the fitted dose curve; in most records, active means well fitted inhibition curve with a large enough effect; inconclusive means small, poorly fitted or top-dose-only effect; inactive means flat fitted curve, though single readings scatter. The list shows a part of the results.

Assay: Acumen qHTS Assay for Inhibitors of the mTORC1 Signaling Pathway in MEF (Tsc2-/-, p53-/-) Cells: Sytravon;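 further: plate controls were DMSO for no effect and rapamycin for full effect; nearly all actives have a fitted effect of over 50% in size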
Conditions: phospho-rpS6 immunofluorescence/PI, 24 h; series mostly up to 38.3 µM; activity change, negative = inhibition: at the top concentration
Procedure, shortened: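 Plate MEFs (Tsc2-/-, p53-/-, empty vector) in DMEM/10% FBS; after 24 h add compound, incubate 24 h at 37 degree Celsius; fix in PFA/TX-100, block, stain phospho-rpS6 and 10 uM PI; scan at 488 nm; report % positive cells.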

Row | Structure (SMILES) | activity change, negative = inhibition
1 | CCOc1cccc(CC(=O)N2CCc3c([nH]c4ccccc34)C2c2ccc(C)cc2)c1OCC (stereo unspecified) | inactive: 12%
2 | Cc1ccc(C)c(-c2nn(CC(=O)Nc3cc(F)ccc3F)c(=O)c3c2CCCC3)c1 | inactive: -0.734%
3 | COc1ccc(C(=O)Nc2ccc3c(c2)N(C2CCCC2)C(=O)c2ccccc2S3)cc1OC | inactive: -4.75%
4 | O=C(NCCc1ccccc1)C(=O)NCC(c1cccnc1)N1CCN(c2ccccc2)CC1 (stereo unspecified) | inactive: -2.87%
5 | Cc1cccc2c1-c1sc(C(=O)N3CCN(c4ccc(F)cc4)CC3)cc1CO2 | inactive: -2.78%
6 | CC(=O)c1ccc(N2CCN(S(=O)(=O)c3cc(-c4onc(C)c4C)ccc3C)CC2)cc1 | inactive: -14.4%
7 | Cc1ccccc1CNC(=O)CCCn1c(=O)c2cccn2c2ccccc21 | inactive: -1.57%
8 | COCCNC(=O)CN1C(=O)COc2ccc(S(=O)(=O)N3CCOCC3)cc21 | inactive: 0.432%
9 | C=Cc1ccc(CSc2nc(-c3ccccc3C)nc3c2Cc2c(CO)cnc(C)c2O3)cc1 | inactive: -7.04%
10 | CCn1cc(C(=O)OCC(=O)Nc2cccc(Cl)c2C)c(=O)c2ccc(C)nc21 | inactive: -2.34%
11 | CCc1ccccc1N(C)C(=O)Nc1cn(CC(C)C)c(=O)c2ccccc12 | inactive: 4.87%
12 | CCOc1ccc(CNC(=O)CCn2c(=O)c3cccn3c3cccnc32)cc1 | inactive: 3.26%
13 | O=C(CSc1nc(=O)n(Cc2ccco2)c2c1CCC2)NCc1ccccc1Cl | inactive: -9.02%
14 | CCOc1ccc(N2CC(NC(=O)c3ccc(S(=O)(=O)N4CCOCC4)cc3)CC2=O)cc1 (stereo unspecified) | inactive: 0.503%
15 | N#Cc1ccc(NC(=O)COCc2cc(-c3ccc4c(c3)OCO4)on2)cc1 | inactive: -11.5%
16 | COC(=O)c1scc(-c2ccc(C)cc2)c1S(=O)(=O)Nc1ccc(OC(F)(F)F)cc1 | inactive: -2.37%
17 | Cc1cc(=O)n2nc(N3CCC(C(=O)NCCCOC(C)C)CC3)sc2n1 | inactive: -6.9%
18 | O=C(CC1NCCNC1=O)Nc1ccc(F)c(Cl)c1 (stereo unspecified) | inactive: 0.56%
19 | O=C(CSc1nnc(CNC(=O)c2ccccc2)n1-c1ccc(F)cc1)Nc1ccccc1F | inactive: -7.42%
20 | Cc1nn(-c2ccc(F)cc2)c(-n2cccc2)c1C(=O)N1CCCCC1C (stereo unspecified) | inactive: -0.65%
21 | COc1ccc(Nc2ncc(C(=O)Nc3ccc(F)cc3F)c3ccccc23)cc1 | inactive: 1.09%
22 | CCOCCCn1c(SCC(=O)Nc2ccc(F)cc2)nc2c(sc3ccccc32)c1=O | inactive: -0.247%
23 | CCC(C(=O)Nc1cc(-c2cn3cccnc3n2)ccc1C)c1ccccc1 (stereo unspecified) | inactive: -10.2%
24 | CCCCNS(=O)(=O)c1ccc(NC(=O)c2c(-c3ccccc3)noc2C)cc1 | inactive: 3.15%

Row | Structure (SMILES) | activity change, negative = inhibition
25 | CCc1cccc(NC(=O)Cn2c(-c3ccc(F)cc3)cc(C(C)=O)c2C)c1 | inactive: -0.0905%
26 | O=C(c1ccc2c(c1)N(Cc1ccccc1Cl)C(=O)c1ccccc1S2)N1CCCC1 | inactive: 1.07%
27 | Nc1nc2nc(-c3ccccc3)cc(=O)n2[nH]1 | inactive: 3.55%
28 | Cc1ccc(NC(=O)C2CCN(S(=O)(=O)c3ccc4c(c3)CCCC(=O)N4)CC2)c(Br)c1 | inactive: -6.88%
29 | COc1ccc(NC(=O)CN2CCCN(Cc3ccccc3)S2(=O)=O)cc1 | inactive: -0.647%
30 | Cc1cccc(NS(=O)(=O)c2ccc3c(c2)n(C)c(=O)n3C)c1C | inactive: -19.2%
31 | Fc1ccc(CNc2nc(-c3ccc(Cl)cc3)cc(C(F)(F)F)n2)cc1 | inactive: -1.86%
32 | O=C(CSc1nc2ccccc2nc1Cc1ccc(Cl)cc1)N1CCCCC1 | inactive: 0%
33 | O=c1oc2ccccc2cc1-c1nc(-c2cccc(Cl)c2)cs1 | inactive: -9.67%
34 | COc1ccccc1N1CCN(c2ncc3c(n2)CCN(Cc2ccc(C)s2)C3)CC1 | inactive: 0%
35 | COc1ccc(Cl)cc1NC(=O)CSc1nc(-c2cccs2)cc(C(F)(F)F)n1 | inactive: 12.9%
36 | Cc1ccc(Cl)cc1N1CCN(C(=O)c2sc3nc4n(c(=O)c3c2C)CCC4)CC1 | inactive: -14.8%
37 | CCN(CC)C(=O)Cn1cc(SCC(=O)Nc2cc(OC)ccc2OC)c2ccccc21 | inactive: -13.7%
38 | CN(C)CCNC(=O)c1ccc2nc(Cc3ccccc3)oc2c1 | inactive: 1.22%
39 | COc1ccc(Cl)cc1NC(=O)CSc1cc(C)[nH]c(=O)n1 | inactive: -7.75%
40 | Cc1cccn2c(=O)cc(CSc3nnc(NC(=O)C(C)C)s3)nc12 | inactive: -4.77%
41 | CCC(CC)C(=O)Nc1ccc2nc(SCC(=O)N3CCOCC3)sc2c1 | inactive: -0.148%
42 | O=C(NCc1ccc(Cl)cc1)C1CCN(S(=O)(=O)c2ccc(F)cc2)CC1 | inactive: 11.5%
43 | CSc1ccc(CCNC(=O)c2c(C)nn(-c3ccc(F)cc3)c2-n2cccc2)cc1 | inactive: 0%
44 | COc1ccc(C(=O)NCC(c2ccc(N(C)C)cc2)N2CCOCC2)cc1 (stereo unspecified) | inactive: -12.2%
45 | Cc1ccc(CSc2nc3ccc(NC(=O)CC(C)C)cc3s2)cc1 | inactive: -0.201%
46 | CCC(C)n1c(SCc2ccc(F)cc2Cl)nc2ccsc2c1=O (stereo unspecified) | inactive: -2.58%
47 | CCOC(=O)c1noc2ncn(Cc3ccc([N+](=O)[O-])cc3)c(=O)c12 | inactive: -18%
48 | CCC(Oc1ccccc1)C(=O)Nc1cccc(OCc2cc(=O)n3cccc(C)c3n2)c1 (stereo unspecified) | inactive: 2.42%

Row | Structure (SMILES) | activity change, negative = inhibition
49 | Cc1c(C)c2c(cc(C)c3c(-c4ccc(Br)cc4)coc32)oc1=O | inactive: -1.46%
50 | Cc1ccc(CSc2nnc([C@@H](N)C(C)C)o2)cc1 | inactive: -14.6%
51 | CC(=O)c1ccc(NC(=O)Cn2c(=O)cc(C)c3c(C)nn(-c4cccc(F)c4)c32)cc1 | inactive: -12%
52 | CCOC(=O)c1c(C)[nH]c(C)c1S(=O)(=O)NCC(=O)Nc1cccc(SC)c1 | inactive: 3.97%
53 | COc1cccc(NC(=O)CSc2nc(C)c(Cc3ccccc3)c(=O)[nH]2)c1 | inactive: -0.255%
54 | CCN(CC)c1ccc(C(=O)NCc2nc3cccnc3n2Cc2ccc(C)cc2)cc1 | inactive: -2.18%
55 | Cc1ccc(C2N=C(N)Nc3nc4ccccc4n32)cc1 (stereo unspecified) | inactive: 0.162%
56 | Cc1cccc(-c2nc3c4c(-c5ccccc5)c(-c5ccccc5)oc4ncn3n2)c1 | inactive: 0.231%
57 | Cc1cccc(NC(=O)Cn2cc(S(=O)(=O)N3CCCC3)c(S(=O)(=O)N3CCCC3)c2)c1C | inactive: -12.1%
58 | COc1ccc(NC(=O)c2c(NCc3cccc(F)c3)sc3c2CCC3)c(OC)c1 | inactive: 6.77%
59 | CSCCC(NS(=O)(=O)c1ccc2c(c1)oc(=O)n2C)C(=O)Nc1ccc(F)c(Cl)c1 (stereo unspecified) | inactive: 0.217%
60 | Cc1cccc(NC(=O)c2cnc3sc(N4CCCC4)nn3c2=O)c1C | inactive: -2.34%
61 | COc1cccc2sc(N(Cc3cccnc3)C(=O)c3ccco3)nc12 | inactive: 1.07%
62 | COc1ccc(OC)c(CNC(=O)c2c(C)oc3ncn(CC(C)C)c(=O)c23)c1 | inactive: 1.33%
63 | CCCCOc1ccc(C2=NC(c3cccs3)=Nc3ccc(OC)cc3N2)cc1 | inactive: -21.5%
64 | O=C(NCC(c1cccnc1)N1CCN(c2ccccc2F)CC1)c1ccc(F)cc1 (stereo unspecified) | inactive: 2.02%
65 | Cc1cc(C)cc(NC(=O)Cc2csc(COc3cccc(C)c3)n2)c1 | inactive: -17.6%
66 | COc1ccc(C)cc1NC(=O)C(=O)NCCc1sc(-c2cccc(C)c2)nc1C | inactive: 0.363%
67 | Cc1ccccc1C(=O)Nc1ccc(S(=O)(=O)N2CCC(c3nc4ccccc4s3)CC2)cc1 | inactive: 4.27%
68 | CCOC(=O)c1ccc(NC(=O)CCCc2nc(-c3cc(OC)c(OC)c(OC)c3)no2)cc1 | inactive: -8.04%
69 | CCCNC(=O)C1CCC(Cn2c(=O)c3sccc3n(CC(=O)NCc3ccccc3)c2=O)CC1 (stereo unspecified) | inactive: -14.6%
70 | Cc1nn(CCCC(=O)NCc2ccccc2Br)c(=O)c2c1sc1ccccc12 | inactive: -4.07%
71 | CCOc1ccc(S(=O)(=O)N(CC(=O)Nc2ccc(OC)cc2OC)c2ccccc2)cc1 | inactive: 0.286%
72 | O=C(NCc1ccccc1F)C1CCCN(C(=O)N2CCOc3ccccc32)C1 (stereo unspecified) | inactive: -1.17%

Row | Structure (SMILES) | activity change, negative = inhibition
73 | O=C(CN1C=NS(=O)(=O)c2ccccc21)Nc1ccccc1F | inactive: 1.3%
74 | COc1ccc(-c2nc3ccccc3o2)cc1NC(=O)COc1ccc(C)c(C)c1 | inactive: -0.881%
75 | COc1ccc(OC)c(CNS(=O)(=O)c2ccc3c(c2)oc(=O)n3C)c1 | inactive: -0.414%
76 | COc1ccc(S(=O)(=O)N(CC(=O)N2CCc3ccccc3C2)c2ccc(C)cc2)cc1 | inactive: -0.0228%
77 | Cc1cccc2nc(Cn3c(=O)n(-c4ccc(Cl)cc4)c(=O)c4c5c(sc43)CCC5)cc(=O)n12 | inactive: 1.1%
78 | CCOc1ccc(C(=O)Nc2cccc(C(=O)OCc3cc(=O)n4cc(C)sc4n3)c2)cc1 | inactive: 0%
79 | COc1ccc(Br)cc1CNC(=O)c1cc(=O)[nH]c2ccc(S(=O)(=O)N3CCCCC3C)cc12 (stereo unspecified) | inactive: -2.41%
80 | Cc1nn(C(C)C(=O)N2CCN(c3ccc(F)cc3)CC2)c(=O)c2c1sc1ccccc12 (stereo unspecified) | inactive: 0.828%
81 | CCn1cc(C(=O)NCCc2ccccc2)c(=O)c2cc(S(=O)(=O)N3CCCCCC3)ccc21 | inactive: -0.217%
82 | COc1ccc(N2C(=O)CS(=O)(=O)C23C(=O)N(Cc2ccccc2F)c2ccccc23)cc1Cl (stereo unspecified) | inactive: -1.29%
83 | CC(=O)N1c2ccc(S(=O)(=O)N3CCC(C(=O)Nc4cccc(Cl)c4C)CC3)cc2CC1C (stereo unspecified) | inactive: -6.63%
84 | Cc1cccc(Cn2cc(S(=O)(=O)c3ccccc3)c(=O)c3cc(F)c(N4CCOCC4)cc32)c1 | inactive: -13%
85 | Cc1cccc(C)c1NC(=O)C1CCCN1S(=O)(=O)c1ccccc1 (stereo unspecified) | inactive: -0.76%
86 | Cc1ccc2c(CC(=O)Nc3ccc(S(=O)(=O)N4CCCCC4C)cc3)coc2c1C (stereo unspecified) | inactive: 4.86%
87 | CCc1ccc2ncc3c(-c4ccc(F)cc4)nn(CC(=O)NC4CCCCC4)c3c2c1 | inactive: -0.642%
88 | CCOC(=O)Cn1c(=O)n(-c2cccc(Cl)c2)c2nc(-c3ccccc3Cl)nc(C(N)=O)c21 | inactive: -1.17%
89 | Cc1ccccc1OC(=O)c1nc(SCc2ccccc2F)ncc1Cl | inactive: 0.931%
90 | CN(C)c1ccc(CNC(=O)Cc2ccc(NC(=O)N3CCCCc4ccccc43)cc2)cc1 | inactive: -14.5%
91 | Cc1ccc(N2CCN(S(=O)(=O)c3nnc(NC(=O)c4ccccc4)s3)CC2)cc1 | inactive: 5.38%
92 | Cc1c(C)n(Cc2ccccc2)c2ccc(C(=O)NCC(C)c3ccccc3)cc12 (stereo unspecified) | inactive: -2.98%
93 | COc1ccc(N2CCN(C(=O)c3cc4c(=O)oc5ccc(C)cc5c4s3)CC2)cc1 | inactive: -6.49%
94 | CCOc1ccc(CCNC(=O)c2ccc(-n3c(C)cc4c3CCCC4)cc2)cc1OCC | inactive: -4.17%
95 | CCCCNc1nc2c(S(=O)(=O)c3ccc(C)cc3)nnn2c2ccsc12 | inactive: -5.44%
96 | CCOc1ccc(N2CC(NC(=O)c3ccc4c(c3)OCO4)CC2=O)cc1 (stereo unspecified) | inactive: 0.848%
